Measured values reported in PubChem BioAssay AID624417 (National Center for Advancing Translational Sciences (NCATS), 2012).
Hit rate of the full screen: of about 410,000 compounds, about 6,400 (1.6%) were called active. The inconclusive results got no clear call from the source; some entries with a clear call stand among them for comparison. The call rests on the fitted dose curve; in most records, active means well fitted inhibition curve with a large enough effect; inconclusive means small, poorly fitted or top-dose-only effect; inactive means no such curve, though single readings can be large or run the other way. A potency beside an inconclusive call is a rough fit, not a confirmed value.

target: Glucagon-like peptide 1 receptor (Homo sapiens) (UniProt P43220); assay: qHTS of GLP-1 Receptor Inverse Agonists (Inhibition Mode); details: HEK293 GLP-1R CRE-luciferase, luminescence, 24 h, GLP-1R form is constitutively active; activity change, negative = inhibition: at 38.3 µM (top of the series) unless noted; further: nearly all actives have a fitted effect of over 55% in size
Chain of UniProt P43220 (P43220 whole entry, looked up): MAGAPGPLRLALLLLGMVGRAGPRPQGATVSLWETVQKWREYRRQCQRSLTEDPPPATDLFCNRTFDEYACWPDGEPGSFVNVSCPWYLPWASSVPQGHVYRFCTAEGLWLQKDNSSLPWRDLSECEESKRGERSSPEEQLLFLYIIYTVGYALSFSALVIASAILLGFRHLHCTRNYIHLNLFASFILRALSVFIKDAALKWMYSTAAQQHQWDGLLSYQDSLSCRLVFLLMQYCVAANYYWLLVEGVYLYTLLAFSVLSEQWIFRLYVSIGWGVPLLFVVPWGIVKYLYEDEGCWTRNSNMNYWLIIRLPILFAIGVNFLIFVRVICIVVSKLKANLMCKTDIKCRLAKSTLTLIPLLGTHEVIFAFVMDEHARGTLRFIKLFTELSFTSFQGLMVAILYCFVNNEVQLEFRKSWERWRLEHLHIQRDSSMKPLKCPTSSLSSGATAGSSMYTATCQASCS
In short: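 HEK293 cells stably co-expressing a cAMP-responsive luciferase reporter and constitutively active GLP-1R were seeded, incubated 12 h, then exposed to compounds for 24 h at 37 C. Luminescence was read 12 min after detection reagent; inverse agonists lower signal.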
On the % scale 0 is the no-effect control and ±100 the full control effect; potency means the concentration at half of the fitted maximal effect; tags describe the fitted curve by direction and shape.

Potency, active:
CCCSc1cc(N2CCOCC2)nc(-c2ccccc2Cl)n1 10 µM
CCOc1ccccc1CN1CCN(C2CCN(c3ccccc3F)CC2)CC1CCO (stereo not given) 11.2 µM

Potency, inconclusive:
CCc1nc(N2CCCC(C)C2)c2oc3ccccc3c2n1 (stereo not given) 11.2 µM [inhibitor, partial curve, poor fit]
c1ccc2c(CSCc3nc4ccccc4[nH]3)cccc2c1 28.2 µM [inhibitor, single point]
CC(C)(C)OC(=O)N1CCC(c2c(C(=O)Nc3ccc4c(c3)OCO4)cnn2-c2ccccc2)CC1 0.501 µM [inhibitor, full curve, poor fit]
COc1cc(NC(=O)C(Cc2ccccc2)n2cccc2)cc(OC)c1 (stereo not given) 8.91 µM [inhibitor, partial curve, poor fit]
CC(C)Cn1c(N)c(C(=O)COC(=O)c2ccccc2Cl)c(=O)n(C)c1=O 8.91 µM [inhibitor, partial curve, poor fit]
COc1ccc(C2CC(c3ccccc3)=NN2c2ccc(C(N)=O)cc2)cc1 (stereo not given) 28.2 µM [inhibitor, single point]
Clc1ccc(/C=N/NC2=Nc3cccc4cccc2c34)cc1 12.6 µM [inhibitor, partial curve, poor fit]
O=S(=O)(NCC(O)c1ccccc1)c1ccc(-c2ccccn2)s1 (stereo not given) 3.98 µM [inhibitor, partial curve, poor fit]
Cc1ccccc1NP1(=O)OCCCN1Cc1ccccc1Cl (stereo not given) 11.2 µM [inhibitor, partial curve, poor fit]
Cc1cc2c(cc1S(=O)(=O)N1CCN(c3ccccc3)CC1)OCCN2C 28.2 µM [inhibitor, single point]
CCOc1cc(C(=O)N2CCN(c3ccccc3)CC2)cc(OCC)c1OCC 7.08 µM [inhibitor, partial curve, poor fit]
CCOC(=O)Cc1csc(NC(=O)c2c(-c3c(F)cccc3Cl)noc2C)n1 28.2 µM [inhibitor, partial curve, poor fit]
Cc1cs/c(=N\N=C2CCCCC2)n1Cc1ccco1 17.8 µM [inhibitor, single point]
Cc1cccc(NC(=O)c2ccc(NS(=O)(=O)c3c(C)noc3C)cc2)c1 8.91 µM [inhibitor, partial curve, poor fit]
CC1(C)CC2CC(C)(CN2C(=O)COC(=O)c2ccc(O)cc2O)C1 (stereo not given) 12.6 µM [inhibitor, partial curve, poor fit]
O=S(=O)(NC1CCCCC1)c1ccc(Br)cc1 8.91 µM [inhibitor, partial curve, poor fit]
C=CCn1cc(CN2CCC(C(=O)Nc3cccc(-c4cccc(Cl)c4)c3)CC2)c(C)n1 8.91 µM [inhibitor, partial curve, poor fit]
CC(=O)c1cccc(NS(=O)(=O)c2cccc(S(=O)(=O)c3ccc(Br)cc3)c2)c1 15.8 µM [inhibitor, partial curve, poor fit]
Cc1cc(C)nc(NC(=O)c2cc(-c3ccc4c(c3)OCO4)nc3ccccc23)c1 10 µM [inhibitor, partial curve, poor fit]
COC(=O)[C@@]12C[C@@H](CC(=O)NCCCCc3ccccc3)C(=O)N(Cc3ccc4c(c3)OCO4)C1=CCC(C)(C)C2 11.2 µM [inhibitor, partial curve, poor fit]
S=C1NCN(C2CCCCC2)CN1CCc1ccccc1 11.2 µM [inhibitor, partial curve, poor fit]
COc1ccc(C)cc1NC(=O)C1CCCN1C(=O)OCc1ccccc1 (stereo not given) 6.31 µM [inhibitor, partial curve, poor fit]
CCOc1cc(S(=O)(=O)NCCc2c(C)[nH]c3ccc(C)cc23)ccc1Br 11.2 µM [inhibitor, partial curve, poor fit]
CC12CCC(C(=O)Nc3cccc(Cl)c3)(C(Br)C1=O)C2(C)C (stereo not given) 8.91 µM [inhibitor, partial curve, poor fit]
CCCCCn1c(=O)[nH]c2cc(C(=O)NCCCN(CC)CC)ccc2c1=O 10 µM [inhibitor, partial curve]
COc1ccc(Cl)c2sc(N(CCN(C)C)C(=O)c3ccc4c(c3)OCCO4)nc12 10 µM [inhibitor, partial curve, poor fit]
CC(C)OP(=O)(OC(C)C)C1(NS(=O)(=O)c2ccc(Cl)cc2)C=C(Cl)C(=O)C(Cl)=C1 12.6 µM [inhibitor, single point]
COc1ccc(N(C(=O)/C=C/C(=O)Nc2cc(C)on2)C(C(=O)NC2CCCC2)c2ccccc2C)cc1 (stereo not given) 7.94 µM [inhibitor, partial curve, poor fit]
CCOc1ccccc1NC(=O)[C@@H](NC(=O)c1ccccc1F)C(C)C 7.94 µM [inhibitor, partial curve, poor fit]
CCOC(=O)c1c(-c2ccccc2)nnn1-c1nc(OCC)nc(N2CCCCC2)n1 11.2 µM [inhibitor, partial curve, poor fit]
O=C(Nc1ccccc1F)c1ccc(COc2ccc(Cl)cc2Cl)o1 11.2 µM [inhibitor, partial curve, poor fit]
Cc1ccc(C)c(-n2cc(CN3CCN(C(=O)c4ncn[nH]4)CC3)c(-c3ccccc3)n2)c1 6.31 µM [inhibitor, partial curve, poor fit]
CCCn1c(C2CCCN2c2nc(-c3ccc(OC)cc3)cs2)nc2ccccc21 (stereo not given) 31.6 µM [inhibitor, single point]
Cc1ccc(C(=O)N2N=C(c3cccc(NS(C)(=O)=O)c3)CC2c2cccs2)cc1 (stereo not given) 28.2 µM [inhibitor, single point]
CN(C)Cc1ccc(F)cc1Sc1ccc(Cl)cc1Cl 28.2 µM [inhibitor, single point]
COc1ccc(NC(=O)CN(C)C(=O)c2cn(-c3ccccc3)nc2-c2ccc(F)cc2)cc1 12.6 µM [inhibitor, partial curve, poor fit]
Cc1ccc(-n2cc(CN(C)Cc3nccn3C)c(-c3cccc(C)c3)n2)cc1 8.91 µM [inhibitor, partial curve, poor fit]
Cc1c(Cl)cccc1NC(=S)N(CCN(C)C)C(C)c1ccco1 (stereo not given) 10 µM [inhibitor, single point]
COc1c(C(=O)Nc2ccc(CN3CCOCC3)cc2)cc2ccccc2c1Br 3.16 µM [inhibitor, full curve]
Cc1c(Cl)ccc2c(C(=O)NCCCn3nccc3C)cc(-c3ccccn3)nc12 10 µM [inhibitor, partial curve, poor fit]
COc1cccc(NC(=O)C2CCCN(S(=O)(=O)c3cccc4nsnc34)C2)c1 (stereo not given) 28.2 µM [inhibitor, single point]
CCC(C)N1CCCC1C(=O)Nc1c(C)cc(C)cc1C (stereo not given) 6.31 µM [inhibitor, partial curve]
COCCNC(=O)CCC1CCN(Cc2ccc(-c3ccccc3)cc2)CC1 28.2 µM [inhibitor, single point]
CC1CCc2cc(F)ccc2N1C(=O)C1(C)CC1(Cl)Cl (stereo not given) 7.94 µM [inhibitor, partial curve, poor fit]
Nc1c2c(nc3sc4c(c13)CCCCC4)CCCCC2 2 µM [inhibitor, partial curve, poor fit]
CCC1CCCCN1C(=S)NC(=O)c1cc(Br)ccc1Cl (stereo not given) 7.08 µM [inhibitor, partial curve, poor fit]
CC(c1ccc(F)cc1)n1cc(S(=O)(=O)N2CCCC2)ccc1=O (stereo not given) 6.31 µM [inhibitor, partial curve, poor fit]
CNc1nc(NCC2CCCCC2)c2sccc2n1 11.2 µM [inhibitor, single point]
Fc1ccc2c(c1)C1OCCCC1C(c1ccccc1)N2 (stereo not given) 2.82 µM [inhibitor, single point]
Cc1ccc2nc(NC(=O)Cn3cc4c(n3)CCCCC4)sc2c1 28.2 µM [inhibitor, single point]
CC(=O)c1cc(C(=O)N2CCc3c([nH]c4ccccc34)C2CC(C)C)[nH]n1 (stereo not given) 8.91 µM [inhibitor, partial curve, poor fit]

Activity change, negative = inhibition, inactive:
Cc1ccc(-n2nc3c(=O)n(C(C)C(=O)NC4CC4)nc(C)c3c2C)cc1 (stereo not given) -7.77%
COCCNC(=O)c1[nH]c2cc(C)ccc2c1Sc1ccc(Cl)cc1 -6.37%
COc1ccc(-c2ccc(C(=O)C3CC3)cc2)cc1 7.9%
CCOCCCn1c(SCC(=O)NC2CCCCC2)nc2ccccc2c1=O 28.5%
COc1cc(CNc2ncn[nH]2)cc(Br)c1OC 2.74%
COc1ccc2c(c1OC)C(=O)N1N=C(c3ccc(Br)cc3)CC21 (stereo not given) 6.58%

Activity change, negative = inhibition, inconclusive:
C=C1CCc2c([nH]c3ccc(OCC(C)C)cc23)C1=O -98.7% [inhibitor]
